# Assay results as given in the supplement of paper PMC8728848.
# The other results are listed elsewhere or left out.
# B1: CSA (Cytisus scoparius), P29257 (protein)
# chain: SEELSFSFTKFKTDQKNLILQRDALITPTGKLQLTTVENGKPAAYSLGRALYSTPIHIWDKSTGDEASFATFFSFVISDAPNPSTAATDGLAFFLAPADTQPQSAGGYLGLFEKDSSYNSSNQIVAVEFDTYYNSAWDPQTNPHIGIDVNTIKSKKVSSWGFKNGNVATVLITYQPSSKSLVASLVYPSGQTSDKTSYIISANVDLKATVPEWVRIGFSATTGQTDNYIETHDILSWSFKSKLPATKN
# Assays:
# Experiment in all cases: glycan array binding signal (z-score within array); higher = stronger binding
# Settings in all cases: glycan notation: IUPAC condensed, linker removed
# [1] = target: Fuc(a1-2)[GalNAc(a1-3)]Gal(b1-3)GlcNAc(b1-2)Man(a1-3)[Fuc(a1-2)[GalNAc(a1-3)]Gal(b1-3)GlcNAc(b1-2)Man(a1-6)]Man(b1-4)GlcNAc(b1-4)[Fuc(a1-6)]GlcNAc
# Method in brief: (§1)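 Glycan array binding is given as a within-array Z-score, which can be read as non-binding when negative. The arrays, 3228 of them, came from the Consortium for Functional Glycomics database and were retained only where the protein sequence was available. Z-scores were averaged across arrays of the same protein sequence at different concentrations or buffers and across linkers.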
# [2] = target: Fuc(a1-2)[GalNAc(a1-3)]Gal(b1-3)GlcNAc(b1-3)GalNAc
# Method in brief: as §1
# [3] = target: Fuc(a1-2)[GalNAc(a1-3)]Gal(b1-3)GlcNAc(b1-6)GalNAc
# Method in brief: as §1
# [4] = target: Fuc(a1-2)[GalNAc(a1-3)]Gal(b1-4)Glc
# Method in brief: as §1
# [5] = target: Fuc(a1-2)[GalNAc(a1-3)]Gal(b1-4)GlcNAc
# Method in brief: as §1
# [6] = target: Fuc(a1-2)[GalNAc(a1-3)]Gal(b1-4)GlcNAc(b1-2)Man
# Method in brief: as §1
# [7] = target: Fuc(a1-2)[GalNAc(a1-3)]Gal(b1-4)GlcNAc(b1-2)Man(a1-3)[Fuc(a1-2)[GalNAc(a1-3)]Gal(b1-4)GlcNAc(b1-2)Man(a1-6)]Man(b1-4)GlcNAc(b1-4)GlcNAc
# Method in brief: as §1
# [8] = target: Fuc(a1-2)[GalNAc(a1-3)]Gal(b1-4)GlcNAc(b1-2)Man(a1-3)[Fuc(a1-2)[GalNAc(a1-3)]Gal(b1-4)GlcNAc(b1-2)Man(a1-6)]Man(b1-4)GlcNAc(b1-4)[Fuc(a1-6)]GlcNAc
# Method in brief: as §1
# [9] = target: Fuc(a1-2)[GalNAc(a1-3)]Gal(b1-4)GlcNAc(b1-3)Gal(b1-4)GlcNAc
# Method in brief: as §1
# [10] = target: Fuc(a1-2)[GalNAc(a1-3)]Gal(b1-4)GlcNAc(b1-3)Gal(b1-4)GlcNAc(b1-3)Gal(b1-4)GlcNAc
# Method in brief: as §1
# [11] = target: Fuc(a1-2)[GalNAc(a1-3)]Gal(b1-4)GlcNAc(b1-3)GalNAc
# Method in brief: as §1
# [12] = target: Fuc(a1-2)[GalNAc(a1-3)]Gal(b1-4)GlcNAc(b1-3)[Fuc(a1-2)[GalNAc(a1-3)]Gal(b1-4)GlcNAc(b1-6)]GalNAc
# Method in brief: as §1
# [13] = target: Fuc(a1-2)[GalNAc(a1-3)]Gal(b1-4)GlcNAc(b1-6)GalNAc
# Method in brief: as §1
# [14] = target: Fuc(a1-2)[GalNAc(a1-3)]Gal(b1-4)[Fuc(a1-3)]GlcNAc
# Method in brief: as §1
# [15] = target: Fuc(a1-2)[GalNAc(a1-3)]Gal(b1-4)[Fuc(a1-3)]GlcNAc(b1-3)GalNAc
# Method in brief: as §1
# [16] = target: Fuc(a1-2)[GalNAc(a1-4)]Gal(b1-4)GlcNAc
# Method in brief: as §1
# [17] = target: Fuc(a1-2)[GalNAc(b1-3)]Gal
# Method in brief: as §1
# Fuc(a1-3)GlcNAc = target: Fuc(a1-3)GlcNAc
# Method in brief: as §1
# [18] = target: Fuc(a1-3)[Gal(b1-4)]Glc6S
# Method in brief: as §1
# [19] = target: Fuc(a1-3)[Gal(b1-4)]GlcNAc
# Method in brief: as §1
# [20] = target: Fuc(a1-3)[Gal(b1-4)]GlcNAc(b1-2)Man
# Method in brief: as §1
# [21] = target: Fuc(a1-3)[Gal(b1-4)]GlcNAc(b1-2)Man(a1-3)[Fuc(a1-3)[Gal(b1-4)]GlcNAc(b1-2)Man(a1-6)]Man(b1-4)GlcNAc(b1-4)GlcNAc
# Method in brief: as §1
# [22] = target: Fuc(a1-3)[Gal(b1-4)]GlcNAc(b1-2)Man(a1-3)[Fuc(a1-3)[Gal(b1-4)]GlcNAc(b1-2)Man(a1-6)]Man(b1-4)GlcNAc(b1-4)[Fuc(a1-6)]GlcNAc
# Method in brief: as §1
# [23] = target: Fuc(a1-3)[Gal(b1-4)]GlcNAc(b1-3)Gal(b1-3)[Fuc(a1-4)]GlcNAc
# Method in brief: as §1
# [24] = target: Fuc(a1-3)[Gal(b1-4)]GlcNAc(b1-3)Gal(b1-4)[Fuc(a1-3)]GlcNAc
# Method in brief: as §1
# [25] = target: Fuc(a1-3)[Gal(b1-4)]GlcNAc(b1-3)Gal(b1-4)[Fuc(a1-3)]GlcNAc(b1-3)Gal(b1-4)[Fuc(a1-3)]GlcNAc
# Method in brief: as §1
# [26] = target: Fuc(a1-3)[Gal(b1-4)]GlcNAc(b1-3)GalNAc
# Method in brief: as §1
# [27] = target: Fuc(a1-3)[Gal(b1-4)]GlcNAc(b1-4)Gal(b1-4)[Fuc(a1-3)]GlcNAc
# Method in brief: as §1
# [28] = target: Fuc(a1-3)[Gal(b1-4)]GlcNAc(b1-4)Gal(b1-4)[Fuc(a1-3)]GlcNAc(b1-4)Gal(b1-4)[Fuc(a1-3)]GlcNAc
# Method in brief: as §1
# [29] = target: Fuc(a1-3)[Gal(b1-4)]GlcNAc(b1-6)GalNAc
# Method in brief: as §1
# [30] = target: Fuc(a1-3)[Gal(b1-4)]GlcNAc(b1-6)[Gal(b1-3)GlcNAc(b1-3)]Gal(b1-4)Glc
# Method in brief: as §1
# [31] = target: Fuc(a1-3)[Gal(b1-4)]GlcNAc6S
# Method in brief: as §1
# [32] = target: Fuc(a1-3)[Gal3S(b1-4)]Glc
# Method in brief: as §1
# [33] = target: Fuc(a1-3)[Gal3S(b1-4)]GlcNAc
# Method in brief: as §1
# [34] = target: Fuc(a1-3)[Gal3S(b1-4)]GlcNAc6S
# Method in brief: as §1
# [35] = target: Fuc(a1-3)[GalNAc(b1-4)]GlcNAc
# Method in brief: as §1
# [36] = target: Fuc(a1-3)[GalNAc(b1-4)]GlcNAc6S
# Method in brief: as §1
binder,measurement,setting,value
B1,glycan array binding signal (z-score),[1],-0.206
same,glycan array binding signal (z-score),[2],-0.15
same,glycan array binding signal (z-score),[3],-0.214
same,glycan array binding signal (z-score),[4],-0.153
same,glycan array binding signal (z-score),[5],-0.184
same,glycan array binding signal (z-score),[6],-0.18
same,glycan array binding signal (z-score),[7],-0.132
same,glycan array binding signal (z-score),[8],-0.142
same,glycan array binding signal (z-score),[9],-0.112
same,glycan array binding signal (z-score),[10],-0.012
same,glycan array binding signal (z-score),[11],-0.156
same,glycan array binding signal (z-score),[12],-0.225
same,glycan array binding signal (z-score),[13],-0.105
same,glycan array binding signal (z-score),[14],-0.127
same,glycan array binding signal (z-score),[15],-0.2
same,glycan array binding signal (z-score),[16],-0.148
same,glycan array binding signal (z-score),[17],4.5
same,glycan array binding signal (z-score),Fuc(a1-3)GlcNAc,-0.136
same,glycan array binding signal (z-score),[18],-0.122
same,glycan array binding signal (z-score),[19],-0.207
same,glycan array binding signal (z-score),[20],-0.213
same,glycan array binding signal (z-score),[21],-0.131
same,glycan array binding signal (z-score),[22],-0.043
same,glycan array binding signal (z-score),[23],-0.128
same,glycan array binding signal (z-score),[24],-0.149
same,glycan array binding signal (z-score),[25],-0.166
same,glycan array binding signal (z-score),[26],-0.185
same,glycan array binding signal (z-score),[27],-0.175
same,glycan array binding signal (z-score),[28],-0.172
same,glycan array binding signal (z-score),[29],0.009
same,glycan array binding signal (z-score),[30],-0.228
same,glycan array binding signal (z-score),[31],-0.043
same,glycan array binding signal (z-score),[32],-0.165
same,glycan array binding signal (z-score),[33],-0.093
same,glycan array binding signal (z-score),[34],-0.155
same,glycan array binding signal (z-score),[35],-0.189
same,glycan array binding signal (z-score),[36],-0.175
